Laboratory results: the supplement of paper PMC8728848
The other results are listed elsewhere or left out.

Key:
Assay in all cases: glycan array binding signal (z-score within array); higher = stronger binding
Conditions in all cases: glycan notation: IUPAC condensed, linker removed
[1] = target: Neu5Ac(a2-3)Gal(b1-4)GlcNAc(b1-2)[Neu5Ac(a2-3)Gal(b1-4)GlcNAc(b1-4)]Man(a1-3)[GlcNAc(b1-4)][Neu5Ac(a2-3)Gal(b1-4)GlcNAc(b1-2)[Neu5Ac(a2-3)Gal(b1-4)GlcNAc(b1-6)]Man(a1-6)]Man(b1-4)GlcNAc(b1-4)GlcNAc
How it was run: (§1)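 Negative Z-scores can be read as non-binding. The Z-score is calculated within each array and then averaged across arrays of one protein sequence at different concentrations or buffers and across linkers. Arrays, 3228 in all, were curated from the Consortium for Functional Glycomics database and kept only where the protein sequence was available.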

[2] = target: Neu5Ac(a2-3)Gal(b1-4)GlcNAc(b1-2)[Neu5Ac(a2-3)Gal(b1-4)GlcNAc(b1-4)]Man(a1-3)[GlcNAc(b1-4)][Neu5Ac(a2-3)Gal(b1-4)GlcNAc(b1-4)Man(a1-6)]Man(b1-4)GlcNAc(b1-4)GlcNAc
How it was run: as §1

[3] = target: Neu5Ac(a2-3)Gal(b1-4)GlcNAc(b1-2)[Neu5Ac(a2-3)Gal(b1-4)GlcNAc(b1-6)]Man(a1-6)[Neu5Ac(a2-3)Gal(b1-4)GlcNAc(b1-2)Man(a1-3)]Man(b1-4)GlcNAc(b1-4)GlcNAc
How it was run: as §1

[4] = target: Neu5Ac(a2-3)Gal(b1-4)GlcNAc(b1-2)[Neu5Ac(a2-3)Gal(b1-4)GlcNAc(b1-6)]Man(a1-6)[Neu5Ac(a2-3)Gal(b1-4)GlcNAc(b1-2)Man(a1-3)][GlcNAc(b1-4)]Man(b1-4)GlcNAc(b1-4)GlcNAc
How it was run: as §1

[5] = target: Neu5Ac(a2-3)Gal(b1-4)GlcNAc(b1-3)Gal
How it was run: as §1

[6] = target: Neu5Ac(a2-3)Gal(b1-4)GlcNAc(b1-3)Gal(b1-3)GlcNAc
How it was run: as §1

[7] = target: Neu5Ac(a2-3)Gal(b1-4)GlcNAc(b1-3)Gal(b1-4)GlcNAc
How it was run: as §1

[8] = target: Neu5Ac(a2-3)Gal(b1-4)GlcNAc(b1-3)Gal(b1-4)GlcNAc(b1-2)Man(a1-3)[Neu5Ac(a2-3)Gal(b1-4)GlcNAc(b1-3)Gal(b1-4)GlcNAc(b1-2)Man(a1-6)]Man(b1-4)GlcNAc(b1-4)GlcNAc
How it was run: as §1

[9] = target: Neu5Ac(a2-3)Gal(b1-4)GlcNAc(b1-3)Gal(b1-4)GlcNAc(b1-3)Gal(b1-4)GlcNAc
How it was run: as §1

[10] = target: Neu5Ac(a2-3)Gal(b1-4)GlcNAc(b1-3)Gal(b1-4)GlcNAc(b1-3)Gal(b1-4)GlcNAc(b1-2)Man(a1-3)[Neu5Ac(a2-3)Gal(b1-4)GlcNAc(b1-3)Gal(b1-4)GlcNAc(b1-3)Gal(b1-4)GlcNAc(b1-2)Man(a1-6)]GalNAc
How it was run: as §1

[11] = target: Neu5Ac(a2-3)Gal(b1-4)GlcNAc(b1-3)Gal(b1-4)GlcNAc(b1-3)GalNAc
How it was run: as §1

[12] = target: Neu5Ac(a2-3)Gal(b1-4)GlcNAc(b1-3)Gal(b1-4)GlcNAc(b1-3)[Neu5Ac(a2-3)Gal(b1-4)GlcNAc(b1-3)Gal(b1-4)GlcNAc(b1-6)]GalNAc
How it was run: as §1

[13] = target: Neu5Ac(a2-3)Gal(b1-4)GlcNAc(b1-3)Gal(b1-4)GlcNAc(b1-6)[Gal(b1-3)]GalNAc
How it was run: as §1

[14] = target: Neu5Ac(a2-3)Gal(b1-4)GlcNAc(b1-3)Gal(b1-4)[Fuc(a1-3)]GlcNAc
How it was run: as §1

[15] = target: Neu5Ac(a2-3)Gal(b1-4)GlcNAc(b1-3)GalNAc
How it was run: as §1

[16] = target: Neu5Ac(a2-3)Gal(b1-4)GlcNAc(b1-3)[Neu5Ac(a2-3)Gal(b1-4)GlcNAc(b1-6)]GalNAc
How it was run: as §1

[17] = target: Neu5Ac(a2-3)Gal(b1-4)GlcNAc(b1-6)GalNAc
How it was run: as §1

[18] = target: Neu5Ac(a2-3)Gal(b1-4)GlcNAc(b1-6)[Gal(b1-3)]GalNAc
How it was run: as §1

[19] = target: Neu5Ac(a2-3)Gal(b1-4)GlcNAc(b1-6)[Neu5Ac(a2-3)Gal(b1-3)]GalNAc
How it was run: as §1

[20] = target: Neu5Ac(a2-3)Gal(b1-4)GlcNAc6S
How it was run: as §1

[21] = target: Neu5Ac(a2-3)Gal(b1-4)[Fuc(a1-3)]GlcNAc
How it was run: as §1

[22] = target: Neu5Ac(a2-3)Gal(b1-4)[Fuc(a1-3)]GlcNAc(b1-2)Man
How it was run: as §1

[23] = target: Neu5Ac(a2-3)Gal(b1-4)[Fuc(a1-3)]GlcNAc(b1-3)Gal
How it was run: as §1

[24] = target: Neu5Ac(a2-3)Gal(b1-4)[Fuc(a1-3)]GlcNAc(b1-3)Gal(b1-4)GlcNAc
How it was run: as §1

[25] = target: Neu5Ac(a2-3)Gal(b1-4)[Fuc(a1-3)]GlcNAc(b1-3)Gal(b1-4)[Fuc(a1-3)]GlcNAc(b1-3)Gal(b1-4)[Fuc(a1-3)]GlcNAc
How it was run: as §1

[26] = target: Neu5Ac(a2-3)Gal(b1-4)[Fuc(a1-3)]GlcNAc(b1-3)GalNAc
How it was run: as §1

[27] = target: Neu5Ac(a2-3)Gal(b1-4)[Fuc(a1-3)]GlcNAc(b1-6)[Gal(b1-3)]GalNAc
How it was run: as §1

[28] = target: Neu5Ac(a2-3)Gal(b1-4)[Fuc(a1-3)]GlcNAc(b1-6)[Neu5Ac(a2-3)Gal(b1-3)]GalNAc
How it was run: as §1

[29] = target: Neu5Ac(a2-3)Gal(b1-4)[Fuc(a1-3)]GlcNAc6S
How it was run: as §1

[30] = target: Neu5Ac(a2-3)Gal6S(b1-4)GlcNAc
How it was run: as §1

[31] = target: Neu5Ac(a2-3)Gal6S(b1-4)[Fuc(a1-3)]GlcNAc
How it was run: as §1

Neu5Ac(a2-3)GalNAc = target: Neu5Ac(a2-3)GalNAc
How it was run: as §1

[32] = target: Neu5Ac(a2-3)GalNAc(b1-4)GlcNAc
How it was run: as §1

[33] = target: Neu5Ac(a2-3)[GalNAc(b1-4)]Gal(b1-4)Glc
How it was run: as §1

[34] = target: Neu5Ac(a2-3)[GalNAc(b1-4)]Gal(b1-4)GlcNAc
How it was run: as §1

[35] = target: Neu5Ac(a2-3)[GalNAc(b1-4)]Gal(b1-4)GlcNAc(b1-3)GalNAc
How it was run: as §1

[36] = target: Neu5Ac(a2-3)[Neu5Ac(a2-6)]GalNAc
How it was run: as §1

Neu5Ac(a2-6)Gal = target: Neu5Ac(a2-6)Gal
How it was run: as §1

[37] = target: Neu5Ac(a2-6)Gal(b1-3)GlcNAc(b1-3)[Gal(b1-4)GlcNAc(b1-6)]Gal(b1-4)Glc
How it was run: as §1

Neu5Ac(a2-6)Gal(b1-4)Glc = target: Neu5Ac(a2-6)Gal(b1-4)Glc
How it was run: as §1

[38] = target: Neu5Ac(a2-6)Gal(b1-4)GlcNAc
How it was run: as §1

[39] = target: Neu5Ac(a2-6)Gal(b1-4)GlcNAc(b1-2)Man
How it was run: as §1

[40] = target: Neu5Ac(a2-6)Gal(b1-4)GlcNAc(b1-2)Man(a1-3)Man(b1-4)GlcNAc(b1-4)GlcNAc
How it was run: as §1

[41] = target: Neu5Ac(a2-6)Gal(b1-4)GlcNAc(b1-2)Man(a1-3)[Gal(b1-4)GlcNAc(b1-2)Man(a1-6)]Man(b1-4)GlcNAc(b1-4)GlcNAc
How it was run: as §1

[42] = target: Neu5Ac(a2-6)Gal(b1-4)GlcNAc(b1-2)Man(a1-3)[GlcNAc(b1-2)Man(a1-6)]Man(b1-4)GlcNAc(b1-4)GlcNAc
How it was run: as §1

B1: LBL-152 (Laetiporus bicolor), B0D650 (protein)
chain: MSNEYNPPLGIAFRLCGLASDRVLFSRVSPSPEVFHHPKSEVYPDQWFVAIPGSGQNAGCYAIKSKNTGKVLFSRMSPDPRVGHIDGDGKYPDNWFKFEAGSGKYAGYFRLRAVASDTVLVSRTSTGTDTQVINYPATSAKYDDQYFTILFDHHHHHH
- glycan array binding signal (z-score) [1]: -0.153
- glycan array binding signal (z-score) [2]: -0.16
- glycan array binding signal (z-score) [3]: -0.147
- glycan array binding signal (z-score) [4]: -0.15
- glycan array binding signal (z-score) [5]: -0.154
- glycan array binding signal (z-score) [6]: -0.151
- glycan array binding signal (z-score) [7]: -0.159
- glycan array binding signal (z-score) [8]: -0.155
- glycan array binding signal (z-score) [9]: -0.143
- glycan array binding signal (z-score) [10]: -0.152
- glycan array binding signal (z-score) [11]: -0.159
- glycan array binding signal (z-score) [12]: -0.153
- glycan array binding signal (z-score) [13]: -0.162
- glycan array binding signal (z-score) [14]: -0.157
- glycan array binding signal (z-score) [15]: -0.152
- glycan array binding signal (z-score) [16]: -0.155
- glycan array binding signal (z-score) [17]: -0.16
- glycan array binding signal (z-score) [18]: -0.152
- glycan array binding signal (z-score) [19]: -0.161
- glycan array binding signal (z-score) [20]: -0.149
- glycan array binding signal (z-score) [21]: -0.156
- glycan array binding signal (z-score) [22]: -0.16
- glycan array binding signal (z-score) [23]: -0.156
- glycan array binding signal (z-score) [24]: -0.147
- glycan array binding signal (z-score) [25]: -0.153
- glycan array binding signal (z-score) [26]: -0.151
- glycan array binding signal (z-score) [27]: -0.153
- glycan array binding signal (z-score) [28]: -0.149
- glycan array binding signal (z-score) [29]: -0.152
- glycan array binding signal (z-score) [30]: -0.156
- glycan array binding signal (z-score) [31]: -0.153
- glycan array binding signal (z-score) (Neu5Ac(a2-3)GalNAc): -0.157
- glycan array binding signal (z-score) [32]: -0.153
- glycan array binding signal (z-score) [33]: -0.157
- glycan array binding signal (z-score) [34]: -0.158
- glycan array binding signal (z-score) [35]: -0.151
- glycan array binding signal (z-score) [36]: -0.151
- glycan array binding signal (z-score) (Neu5Ac(a2-6)Gal): -0.133
- glycan array binding signal (z-score) [37]: -0.16
- glycan array binding signal (z-score) (Neu5Ac(a2-6)Gal(b1-4)Glc): -0.151
- glycan array binding signal (z-score) [38]: -0.153
- glycan array binding signal (z-score) [39]: -0.151
- glycan array binding signal (z-score) [40]: -0.158
- glycan array binding signal (z-score) [41]: -0.157
- glycan array binding signal (z-score) [42]: -0.161
